86 sequences from the supplement of paper PMC3334620 can be followed below.

The full ranking holds about 33,000 sequences; the median of “E-score (-0.5 to 0.5)” is about -0.017, and the highest 2% start at about 0.3. This is one part of the list.

This assay addresses T1, Sut1 (UniProt P53032).
T1 sequence: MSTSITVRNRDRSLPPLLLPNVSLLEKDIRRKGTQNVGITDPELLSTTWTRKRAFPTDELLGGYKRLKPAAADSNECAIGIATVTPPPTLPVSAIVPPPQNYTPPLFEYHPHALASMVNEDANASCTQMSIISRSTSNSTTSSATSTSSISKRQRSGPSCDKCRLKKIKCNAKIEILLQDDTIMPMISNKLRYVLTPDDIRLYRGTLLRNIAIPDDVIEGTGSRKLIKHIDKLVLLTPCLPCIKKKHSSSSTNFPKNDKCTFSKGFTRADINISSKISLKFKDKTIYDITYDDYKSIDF
Briefly: PBM E-score (8-mer binding enrichment) (E-score (-0.5 to 0.5)); higher = stronger / more preferred TF binding; most listed sequences are background and not binding sites. The following applies: protein concentration: 200 nM; construct: GST-full length. As for the experimental part:
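Universal 'all 10-mer' protein binding microarrays (Agilent AMADID 015681) probed with GST-tagged S. cerevisiae TFs (full-length or DBD) made by in vitro transcription/translation (PURExpress), about 100-200 nM. Bound TF was detected with fluorescent anti-GST. Each ungapped 8-mer (which stands for itself and its reverse complement) is scored by the PBM enrichment score (E-score), a modified Wilcoxon-Mann-Whitney statistic from -0.5 to +0.5, computed with the Universal PBM Analysis Suite. Scale: above 0.35 generally sequence-specific binding.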
Turning to GCAACACA, the “PBM E-score” value is -0.047.
The result for AACCATGT reads 0.0208.
The result for CCCAAGGA reads -0.146.
CTCGCCAC: the “PBM E-score” value was -0.186.
CATTTAAC: the “PBM E-score” value amounted to 0.111.
Take ATTCACCG: the “PBM E-score” value amounted to 0.202.
Consider GTATCGAC, for which the “PBM E-score” value is -0.0452.
As to CCGTCAAG, the “PBM E-score” value was found to be 0.0083.
Turning to CAACGGGG, the “PBM E-score” value is -0.0181.
As for ATCACCAT, the figure is 0.0974; as for AACAATAA, 0.192; as for ATCACATC, 0.0216.
As for AATCTGTA, the figure is 0.0605; as for GTCCTACA, -0.0165; as for AGCATAAG, -0.0071.
As for GGACGTTA, the figure is -0.036; as for ACTTGATC, 0.137; as for AGATCTGC, -0.0941.
AGACTGCT: the “PBM E-score” value is -0.192.
The result for GCGTTCCC reads -0.127; that for GGTATCCA, -0.055; that for AAACATCT, 0.132.
The result for AGTAATCG reads 0.131; that for ACATCCTG, 0.111.
For the sequence GTTGGTCA, the “PBM E-score” value came to 0.0837.
As to AACTAGCA, the “PBM E-score” value is -0.0313.
Consider AGCATTGC, for which the “PBM E-score” value was -0.0883.
The result for CGACCGGC reads -0.195; that for ACGTTTCA, 0.051.
The result for CGGCAAAG reads 0.0412.
In the case of GGGTACAA, the “PBM E-score” value was determined as 0.0309.
As for ACCATCAC, the figure is 0.055.
On to GCGAACTA, for which the “PBM E-score” value is 0.0496.
As for AATAGGCG, the figure is 0.106; as for GACTACCC, -0.104.
Regarding AAAATCCA, the “PBM E-score” value is 0.202.
As for CGCCTACC, the figure is -0.167.
The result for AACTCTGT reads -0.0734; that for AGCCTGTA, 0.0203.
For the sequence GCGTAAGA, the “PBM E-score” value worked out at 0.13.
As for AGACGTGC, the figure is -0.0773.
The result for AACGGAGG reads -0.0314.
The result for ATCCCAAG reads 0.0602.
Take GGGCGCTA: the “PBM E-score” value was -0.166.
On to ACCCACAC, for which the “PBM E-score” value was -0.0901.
Regarding TGTCTAAA, the “PBM E-score” value stood at 0.153.
The result for ATCTTATC reads 0.154; that for CGTCCAAG, -0.0933; that for AATCGTTC, 0.0128.
For ATCTGAAG, the “PBM E-score” value was -0.0527.
The result for AAGTACAG reads -0.147; that for AGTTGATG, 0.0114; that for CCTGGGTC, -0.228.
The result for CGCAGCAA reads -0.199; that for AAATTGCT, 0.0866.
As to GACGCAGA, the “PBM E-score” value was -0.0808.
The result for GGAAGGAC reads -0.0551.
The result for GAGTTAAA reads 0.13; that for GAGGGCGC, -0.214.
The result for CATAGATG reads -0.116.
On to GGAGAGCA, for which the “PBM E-score” value was -0.125.
As for CAGTAATA, the figure is 0.261; as for CGAGCGGA, 0.0878; as for CAATGCAC, 0.00379.
The result for GGGACTAC reads -0.162; that for CTGATTAA, 0.209; that for CTTTTCAC, 0.0905.
AATATGCC: the “PBM E-score” value is -0.0767.
For the sequence CTTGGTAC, the “PBM E-score” value is -0.152.
AGAGGCTC: the “PBM E-score” value was -0.103.
The result for CATTAATG reads -0.00733; that for CCACAGTA, -0.146; that for ACGGGCAG, -0.0311.
For GAGATTAA, the “PBM E-score” value worked out at 0.2.
The result for ATTTGTTA reads 0.137.
As for ATGAGTTC, the figure is 0.0395.
Regarding AGACTATG, the “PBM E-score” value was found to be 0.0162.
The result for ATAACCGG reads 0.0855; that for GTATTATA, 0.267; that for ATAATTGG, 0.0406.
As for ATATGAAA, the figure is 0.118; as for AATATAGT, 0.244.
As for CTGCAGTC, the figure is -0.164.
For the sequence TCCGACCA, the “PBM E-score” value was determined as 0.187.
TATCAGAA: the “PBM E-score” value was found to be 0.202.
As for AGAGTAGC, the figure is -0.247.
